Details in all cases: 50 µM; 24 h
For experiment [1], the system named is HeLa VPS33A reporter cells. Briefly: relative cell viability (CellMask signal) vs DMSO (fraction of DMSO); higher = less cytotoxic.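 Also: primary screen of an FDA-approved drug library in HeLa reporter cells in 96-well format, CellMask signal normalized to DMSO-treated wells set as 1, under 0.5 deemed highly cytotoxic.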
Experiment [2] deals with HeLa VPS33A R498W KI + HA-SDC1-FLAG. In words: relative GAG core protein HA-SDC1 amount per cell number vs DMSO (fraction of DMSO); higher = more SDC1 (GAG core protein).
The subject of experiment [3] is HeLa VPS33A KO + NLuc-VPS33A R498W. Briefly: relative mutant VPS33A R498W amount (NanoLuc luminescence) vs DMSO (fraction of DMSO); HeLa model of a glycosaminoglycan (GAG) storage disease; KI is knock-in and KO knock-out; SDC1 is syndecan 1; higher = higher mutant VPS33A level.

Where a name gives a salt, the structure may show the parent alone. Some of the results follow. Rule as the data show it: active = 0.5 or less and inactive = the rest. Single values are uncertain, as repeats are few or missing.
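For relative GAG core protein HA-SDC1 amount per cell number vs DMSO in this document: HA-SDC1 level read out by In-Cell Western staining with an anti-HA antibody against the N-terminal tag, screening FDA-approved library drugs.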
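For relative mutant VPS33A R498W amount (NanoLuc luminescence) vs DMSO in this document: screen of an FDA-approved drug library, NanoLuc luminescence read after lysing the treated cells, taken as a measure of mutant VPS33A protein stability.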

The compound `CC(=O)Nc1ncc([N+](=O)[O-])s1` [Nithiamide] had a relative cell viability in experiment [1] of 0.927. In addition, in experiment [2], the “relative GAG core protein HA-SDC1 amount per cell number” value was inactive: 0.906. Also, the “relative mutant VPS33A R498W amount” value in experiment [3] came to 1.24.
The matching figures for `COc1ccc(CN2CCN(C(c3ccc(F)cc3)c3ccc(F)cc3)CC2)c(OC)c1OC` [Lomerizine HCl]: 0.631, active: 0.242 and 0.45.
On to `CCn1cc(C(=O)O)c(=O)c2cc(F)c(N3CCNC(C)C3)c(F)c21` (configuration not stated) [Lomefloxacin HCl], for which the relative cell viability in experiment [1] was found to be 0.873. The “relative GAG core protein HA-SDC1 amount per cell number” value in experiment [2] is inactive: 1.06. In addition, the “relative mutant VPS33A R498W amount” value in experiment [3] came out at 0.885.
`CCOC(=O)N1CCC(=C2c3ccc(Cl)cc3CCc3cccnc32)CC1` [Loratadine]: the “relative GAG core protein HA-SDC1 amount per cell number” value in experiment [2] is active: 0.474. The “relative mutant VPS33A R498W amount” value in experiment [3] is 0.0177.
Turning to `OC[C@@H](O)[C@@H](O)[C@H](O)[C@@H](O)CO` [Sorbitol], the relative cell viability in experiment [1] was 1.06. Besides, the “relative GAG core protein HA-SDC1 amount per cell number” value in experiment [2] was inactive: 0.81. Further, in experiment [3], the “relative mutant VPS33A R498W amount” value was determined as 1.3.
`CCCCCCCC/C=C\CCCCCCCC(=O)O` [Oleic Acid]: in experiment [1], the relative cell viability is 0.918. In experiment [2], the “relative GAG core protein HA-SDC1 amount per cell number” value is inactive: 1.1. In experiment [3], the “relative mutant VPS33A R498W amount” value was determined as 1.46.
For `CC1=C(CC(=O)O)c2cc(F)ccc2/C1=C\c1ccc([S+](C)[O-])cc1` (configuration not stated) [Sulindac], in experiment [1], the relative cell viability was 0.955. Also, the “relative GAG core protein HA-SDC1 amount per cell number” value in experiment [2] is inactive: 0.809. For the same compound, in experiment [3], the “relative mutant VPS33A R498W amount” value was 1.01.
For `N=C(N)NC(=N)N1CCOCC1` [Moroxydine HCl], in experiment [1], the relative cell viability is 0.985. For the same compound, the “relative GAG core protein HA-SDC1 amount per cell number” value in experiment [2] was inactive: 1.1. Besides, the “relative mutant VPS33A R498W amount” value in experiment [3] was 1.31.
In turn, `CC1CCc2cc(F)cc3c(=O)c(C(=O)O)cn1c23` (configuration not stated) [Flumequine] had a relative cell viability in experiment [1] of 0.979. Further, the “relative GAG core protein HA-SDC1 amount per cell number” value in experiment [2] was inactive: 0.7. In addition, the “relative mutant VPS33A R498W amount” value in experiment [3] worked out at 1.53.
Regarding `CC1(C)[C@H](C(=O)O)N2C(=O)C[C@H]2S1(=O)=O` [Sulbactam sodium], the “relative GAG core protein HA-SDC1 amount per cell number” value in experiment [2] was inactive: 1. For the same compound, the “relative mutant VPS33A R498W amount” value in experiment [3] was determined as 1.1.
As to `CC(C)=C1C/C=C(\C)CC/C=C(\C)CC1=O` [Germacrone], in experiment [1], the relative cell viability was 0.992. Also, the “relative GAG core protein HA-SDC1 amount per cell number” value in experiment [2] was inactive: 0.7. Moreover, the “relative mutant VPS33A R498W amount” value in experiment [3] turned out to be 0.903.
The matching figures for `CCOC(=O)[C@H](CCc1ccccc1)N[C@H]1CCc2ccccc2N(CC(=O)O)C1=O` [Benazepril HCl]: 1.01, inactive: 0.959 and 1.33.
In turn, `CC[C@H]1OC(=O)[C@H](C)[C@@H](O[C@H]2C[C@@](C)(OC)[C@@H](O)[C@H](C)O2)[C@H](C)[C@@H](O[C@@H]2O[C@H](C)C[C@H](N(C)C)[C@H]2O)[C@](C)(OC)C[C@@H](C)C(=O)[C@H](C)[C@@H](O)[C@]1(C)O` [Clarithromycin] displayed a relative cell viability in experiment [1] of 1.01. Also, the “relative GAG core protein HA-SDC1 amount per cell number” value in experiment [2] was inactive: 1.08. The “relative mutant VPS33A R498W amount” value in experiment [3] is 1.02.
Regarding `CC(C)CN(C[C@@H](O)[C@H](Cc1ccccc1)NC(=O)O[C@H]1CO[C@H]2OCC[C@H]21)S(=O)(=O)c1ccc(N)cc1` [Darunavir], the “relative GAG core protein HA-SDC1 amount per cell number” value in experiment [2] is inactive: 1.16. The “relative mutant VPS33A R498W amount” value in experiment [3] was 1.
Consider `O=c1c(-c2ccc(O)cc2)coc2cc(O)ccc12` [Daidzein], for which the relative cell viability in experiment [1] is 1.08. Moreover, the “relative GAG core protein HA-SDC1 amount per cell number” value in experiment [2] is inactive: 0.913. In addition, the “relative mutant VPS33A R498W amount” value in experiment [3] is 1.12.
As to `[F-].[Na+]` [sodium fluoride], in experiment [1], the relative cell viability is 1.12. In experiment [2], the “relative GAG core protein HA-SDC1 amount per cell number” value is inactive: 0.957. Further, the “relative mutant VPS33A R498W amount” value in experiment [3] was 1.1.
As to `Nc1nc(CC(=O)Nc2ccc(CCNC[C@H](O)c3ccccc3)cc2)cs1` [Mirabegron (YM178)], the relative cell viability in experiment [1] amounted to 1.09. The “relative GAG core protein HA-SDC1 amount per cell number” value in experiment [2] was inactive: 1.17. In addition, the “relative mutant VPS33A R498W amount” value in experiment [3] came to 0.947.
On to `CN1C2CCC1CC(OC(=O)C(O)c1ccccc1)C2` (configuration not stated) [Homatropine Bromide], for which the “relative GAG core protein HA-SDC1 amount per cell number” value in experiment [2] was inactive: 0.672. Also, the “relative mutant VPS33A R498W amount” value in experiment [3] turned out to be 0.786.
Taken in the same sequence, the figures for `C[C@H](C(=O)O)c1cccc(C(=O)c2ccccc2)c1` [(S)-Ketoprofen] were inactive: 0.82 and 0.866.
Regarding `Cc1c(O)c(=O)ccn1C` [Deferiprone], in experiment [1], the relative cell viability stood at 0.972. Also, the “relative GAG core protein HA-SDC1 amount per cell number” value in experiment [2] is inactive: 0.603. For the same compound, the “relative mutant VPS33A R498W amount” value in experiment [3] stood at 1.34.
Compound `COc1ccc2c(c1)c(CC(=O)OCC(=O)O)c(C)n2C(=O)c1ccc(Cl)cc1` [Acemetacin] gave a relative cell viability in experiment [1] of 1.16. Besides, in experiment [2], the “relative GAG core protein HA-SDC1 amount per cell number” value is inactive: 1.07. Also, the “relative mutant VPS33A R498W amount” value in experiment [3] was 1.18.
As to `COc1ccc(CCN(C)CCCC(C#N)(c2ccc(OC)c(OC)c2)C(C)C)cc1OC` (configuration not stated) [Verapamil HCl], the “relative GAG core protein HA-SDC1 amount per cell number” value in experiment [2] is inactive: 0.971. Besides, in experiment [3], the “relative mutant VPS33A R498W amount” value was 0.703.
Compound `C[C@H](CCC(=O)O)[C@H]1CC[C@H]2[C@@H]3CC[C@@H]4C[C@H](O)CC[C@]4(C)[C@H]3C[C@H](O)[C@]12C` [Deoxycholic acid] registered a relative cell viability in experiment [1] of 1.07. Moreover, in experiment [2], the “relative GAG core protein HA-SDC1 amount per cell number” value was inactive: 0.802. Also, in experiment [3], the “relative mutant VPS33A R498W amount” value worked out at 1.09.
`CCOC(=O)C1=C(C)NC(C)=C(C(=O)OC)C1c1cccc([N+](=O)[O-])c1` (configuration not stated) [Nitrendipine] returned a relative cell viability in experiment [1] of 1.07. The “relative GAG core protein HA-SDC1 amount per cell number” value in experiment [2] is inactive: 1.28. Moreover, in experiment [3], the “relative mutant VPS33A R498W amount” value was determined as 1.02.
In the case of `CC(C)c1nc(N(C)S(C)(=O)=O)nc(-c2ccc(F)cc2)c1/C=C/[C@@H](O)C[C@@H](O)CC(=O)O` [Rosuvastatin], in experiment [1], the relative cell viability stood at 1.42. Further, in experiment [2], the “relative GAG core protein HA-SDC1 amount per cell number” value is inactive: 0.804. Also, the “relative mutant VPS33A R498W amount” value in experiment [3] is 2.92.
Compound `CC(C)C(=O)Nc1ccc([N+](=O)[O-])c(C(F)(F)F)c1` [Flutamide] registered a relative cell viability in experiment [1] of 0.922. Moreover, in experiment [2], the “relative GAG core protein HA-SDC1 amount per cell number” value is active: 0.303. Further, the “relative mutant VPS33A R498W amount” value in experiment [3] was 0.913.
`CCCCCCCCCCC(=O)O` [Undecanoic Acid]: the relative cell viability in experiment [1] was found to be 0.966. For the same compound, the “relative GAG core protein HA-SDC1 amount per cell number” value in experiment [2] is inactive: 0.778. For the same compound, in experiment [3], the “relative mutant VPS33A R498W amount” value is 1.5.
`NC(=O)C(c1ccccc1)(c1ccccc1)[C@@H]1CCN(CCc2ccc3c(c2)CCO3)C1` [Darifenacin HBr]: the “relative GAG core protein HA-SDC1 amount per cell number” value in experiment [2] is active: 0.28. Also, in experiment [3], the “relative mutant VPS33A R498W amount” value amounted to 0.675.

For the origin of these results see the supplement of paper PMC12355420.
